Experimental data published in ChEMBL document CHEMBL4888484, “Replenishing the malaria drug discovery pipeline: Screening and hit evaluation of the MMV Hit Generation Library 1 (HGL1) against asexual blood stage Plasmodium falciparum ,using a nano luciferase reporter read-out” (2022).
In all, about 150,000 compounds went through this assay and about 540 (0.36%) showed an effect of 50% or more. The list shows a part of the results.

These compounds were tested on Plasmodium falciparum (assay: Primary screen in NF54 nanoGlo assay, in single point, at 2uM, 72h; a lower Z score goes with more inhibition). Conditions: timepoint 72 hour.
Assay type: functional, Erythrocyte

Row | SMILES | % Inhibition | Z score
1 | Cc1c([C@@H]2[C@@H](CNC(=O)N[C@H]3CC[C@H]3c3ccccc3)CC(=O)N2C)cnn1C | 10% | -1.91
2 | NC(=O)Cn1ccnc1C1CCN(C(=O)c2cccc3c2NCCC3)CC1 | -23% | 1.99
3 | CCN(Cc1nc(C(C)C)no1)C(=O)Cn1c(=O)cnc2ccccc21 | 9% | -1.25
4 | CC[C@H](NCCCO)c1cccc(Cl)c1F | -2% | 0.2
5 | CCCN(C[C@H]1CCOC1)C(=O)Nc1cccc(F)c1C | 0% | 0.05
6 | CCn1c(-c2ccccc2F)nc2cc(NC(C)=O)cc(C(=O)N[C@H]3CS(=O)(=O)C[C@@H]3O)c21 | 1% | -0.11
7 | N#Cc1cc(Cl)ccc1NC[C@@H](CO)Cc1ccccn1 | -12% | 1.32
8 | Cc1cc(NC(=O)N2CCC[C@H](S(=O)(=O)N3CCc4ccccc43)C2)no1 | -16% | 1.45
9 | Cc1cccc(-c2ccc(C(=O)N3CCOCC3)c(=O)[nH]2)c1 | -4% | 0.54
10 | CC(C)COC1CCN(C(=O)[C@@H]2Cc3ccccc3O2)CC1 | 7% | -1
11 | CCN(Cc1nc(C)no1)C(=O)c1cc(Cl)c(C)c(Cl)c1 | -5% | 1.05
12 | CC(C)(O)CNC1CCC2(CC1)CCN(C(=O)OC(C)(C)C)C2 (configuration not stated) | -6% | 1.22
13 | C[C@]1(O)CCN(Cc2cccc(OC(F)F)c2)C[C@H]1O | -1% | 0.1
14 | O=C(c1ccc(-c2ccccn2)[nH]c1=O)N1CCOC2CCCCC21 (configuration not stated) | -9% | 0.86
15 | CC(C)(C)c1csc(CC2CCN(c3nccn4nnnc34)CC2)n1 | -15% | 1.92
16 | CCS(=O)(=O)N1CC(Cc2nc(-c3cccnc3)no2)C1 | -6% | 0.78
17 | O=S(=O)(c1cccc(Nc2nnc(-c3ccc(F)c(F)c3)c3ccccc23)c1)N1CCCC1 | -17% | 2.46
18 | O=C([C@H]1C[C@H](F)CN1)N1CCN(c2ccc(C(F)(F)F)cc2)CC1 | -2% | 0.14
19 | COc1cc2c(cc1CN(C)Cc1nc3ccc(F)cc3[nH]1)OCO2 | -5% | 0.67
20 | CN(CC(O)CO)c1ccnc(N2C[C@@H]3[C@H]4CC[C@H](CC4)[C@@H]3C2)n1 (some centres not stated) | -30% | 2.6
21 | Cc1nc(CNc2ccnc3ccsc23)ccc1[C@H](C)O | -1% | 0.14

Row | SMILES | % Inhibition | Z score
22 | CCn1ncc(NC(=O)N(C)Cc2cccc(=O)[nH]2)c1C(F)(F)F | -18% | 1.99
23 | CC(C)(C)C(=O)CN1C(=O)N[C@@]2(CCS(=O)(=O)c3ccc(F)cc32)C1=O | 5% | -0.52
24 | O=S(=O)(c1ccc(OCC(F)(F)F)nc1)N1CCCc2ccccc21 | -12% | 2.38
25 | O=C(Nc1cnn2c1NCCC2)c1scc2c1CCCC2 | -6% | 1.2
26 | CN=C(NCCCOC[C@H]1CCOC1)NC1CC(c2ccccc2)C1 (some centres not stated) | -4% | 0.38
27 | O=C(NCc1cccnc1N1CCCC1)c1cccnc1O[C@H]1CCOC1 | -4% | 0.73
28 | C[C@@H]1CN(C[C@@H]2CN(C(=O)C3CCC3)C[C@@H]2CO)C[C@H](C)O1 | -8% | 1.37
29 | CC(C)(C)c1ccn(C2(C(=O)O)CCN(Cc3cccnc3N)CC2)n1 | 6% | -0.86
30 | CCN1CCC(CC(=O)N2CCc3onc(-c4ccccc4)c3C2)CC1 | 2% | -0.22
31 | COc1ccc(C[C@@]2(C)CNC(=O)O2)cc1OC | -15% | 1.51
32 | Cc1noc(-c2ccccc2Cl)c1C(=O)NCCc1cccc(Cl)c1 | -13% | 2.48
33 | C[C@@H](CC#N)N(C)C(=O)Nc1cnn(Cc2ccccn2)c1 | -9% | 1.15
34 | CCn1cc(CN[C@@H](C)c2cc3ccccc3o2)cn1 | -1% | 0.1
35 | CC(C)Cn1cc(NCc2cnn(C(C)(C)C)c2)cn1 | -17% | 1.98
36 | Fc1ccc(-c2cnc3n2C[C@H](CNCc2ccc4c(c2)OCO4)OC3)cc1 | 16% | -1.92
37 | Cc1c(S(=O)(=O)N[C@H]2CCCN(CC(F)(F)F)C2)cnn1C | 7% | -0.56
38 | CC(C)CC(=O)N(CC(=O)N(Cc1ccco1)C[C@H]1CCCO1)CC(C)C | 9% | -1.42
39 | COc1cccc(Cn2c(=O)c3sccc3n(CC(=O)NCCc3ccc(Cl)cc3)c2=O)c1 | 7% | -0.93
40 | CCc1ccc(C(=O)N2CCCN(c3nc(CCC(C)C)nc4c3cnn4-c3cccc(Cl)c3)CC2)cc1 | -8% | 1.2
41 | O=C(COC1CCCCC1)Nc1ccncc1F | -1% | 0.1
